# Test results taken from the supplement of paper PMC9446081.
# In all, about 39,000 compounds went through this assay and about 220 (0.56%) showed activity. Some of the results follow.
# Test system: Escherichia coli K-12 BW25113
# Assay: relative growth (OD600 normalised to plate interquartile mean) (fraction); higher = less growth inhibition, active = 0.2 or less
# Conditions: 50 µM; LB; incubation time: overnight (16-24 h)
# 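Note: static incubation at 37 °C against the wild-type strain, values averaged over two biological replicates.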
row,Compound,relative growth
1,Cc1ccccc1S(=O)(=O)N1C[C@H](O)COC[C@@H]2O[C@H](CC(=O)N3CCOCC3)CC[C@H]21,inactive: 1.01
2,Cc1noc(C)c1S(=O)(=O)Nc1ccc2c(c1)C(=O)N([C@@H](C)CO)C[C@@H](C)[C@@H](CN(C)C)OCCCC[C@H](C)O2,inactive: 0.994
3,CN1C(=O)c2cc(NC(=O)Cc3cccs3)ccc2OC[C@@H]2O[C@H](CC(=O)NCCc3ccncc3)CC[C@@H]21,inactive: 1
4,C[C@H](CO)N1C[C@H](C)[C@H](CN(C)C(=O)Nc2ccc(F)cc2)Oc2ccc(NC(=O)CCN3CCOCC3)cc2C1=O,inactive: 0.969
5,COc1ccc(S(=O)(=O)N(C)C[C@H]2OCCCC[C@@H](C)Oc3ccc(NC(=O)Nc4cccc5ccccc45)cc3C(=O)N([C@H](C)CO)C[C@H]2C)cc1,inactive: 1.04
6,CC(C)NC(=O)N(C)C[C@H]1Oc2ccc(NC(=O)CCC(F)(F)F)cc2CC(=O)N([C@H](C)CO)C[C@@H]1C,inactive: 1.01
7,O=C(Nc1ccc(-c2nc3cc(NC(=O)c4ccccc4[N+](=O)[O-])ccc3o2)cc1)c1ccccc1[N+](=O)[O-],inactive: 0.984
8,C[C@H]1CCCCO[C@@H](CN(C)C(=O)Nc2ccc(C(F)(F)F)cc2)[C@@H](C)CN([C@@H](C)CO)C(=O)c2cc(NC(=O)c3ccccc3)ccc2O1,inactive: 1.02
9,O=C(C[C@@H]1CC[C@H](NS(=O)(=O)c2ccccc2F)[C@H](CO)O1)NCCCN1CCOCC1,inactive: 0.967
10,C[C@@H]1CN([C@H](C)CO)S(=O)(=O)c2ccc(-c3ccncc3)cc2O[C@@H]1CN(C)C(=O)c1ccc2c(c1)OCO2,inactive: 0.978
11,O=C(C[C@H]1CC[C@@H]2[C@H](COC[C@@H](O)CN2C(=O)c2ccccc2)O1)N1CCOCC1,inactive: 0.887
12,Cc1ccccc1-n1cc[nH]c1=S,inactive: 0.968
13,COc1cccc(C#Cc2ccc3c(c2)O[C@@H](CN(C)C(C)=O)[C@H](C)CN([C@@H](C)CO)S3(=O)=O)c1,inactive: 0.945
14,O=C(C[C@H]1C=C[C@H](NC(=O)c2cnccn2)[C@@H](CO)O1)NCc1ccccc1F,inactive: 0.974
15,C#CCN1[C@H](/C=C/C2CC2)[C@H](CCn2cc(-c3ccc(C(=O)NO)s3)nn2)OC(=O)[C@@H]1Cc1ccccc1,inactive: 1.02
16,C[C@@H]1CN([C@H](C)CO)C(=O)c2ccccc2-c2ccccc2CO[C@@H]1CN(C)C(=O)c1cc(Cl)cc(Cl)c1,inactive: 1.02
17,CC(=O)N1[C@@H](CO)[C@H](c2ccccc2)C12CN(C(=O)CN1CCOCC1)C2,inactive: 0.924
18,C[C@@H]1CN([C@H](C)CO)C(=O)c2cc(NC(=O)c3ccccc3)ccc2O[C@@H](C)CCCCO[C@H]1CN(C)C(=O)Nc1ccc(F)cc1,inactive: 1.01
19,N[C@H](C(=O)O)c1ccc(O)c(C(=O)O)c1,inactive: 1.01
20,CO[C@H]1CN(C)C(=O)c2ccc(NC(C)=O)cc2OC[C@H](C)N(S(=O)(=O)c2cn(C)cn2)C[C@H]1C,inactive: 0.98
21,C[C@@H]1CN([C@@H](C)CO)C(=O)c2cc(NC(=O)Nc3ccc4c(c3)OCO4)ccc2O[C@@H](C)CCCCO[C@@H]1CN(C)C(=O)c1ccccc1,inactive: 1.02

row,Compound,relative growth
1,CN(N=O)C(=O)NC1C(O)OC(CO)C(O)C1O (stereo unspecified),inactive: 0.677
2,O=C(C[C@H]1C=C[C@H](NC(=O)c2cccc(F)c2)[C@H](CO)O1)NCCN1CCCC1,inactive: 0.997
3,OC[C@H]1O[C@H](C#Cc2ccccc2)C=C[C@@H]1O,inactive: 0.941
4,c1ccc(-c2nn[nH]n2)cc1,inactive: 0.978
5,C[C@@H]1CN([C@H](C)CO)S(=O)(=O)c2ccc(C3=CCCC3)cc2O[C@@H]1CN(C)C(=O)c1cnccn1,inactive: 1.01
6,CN1C[C@@H](O)COC[C@H]2O[C@@H](CC(=O)N3CCN(c4ccccc4)CC3)CC[C@@H]21,inactive: 0.989
7,CCCNC(=O)Nc1ccc2c(c1)OC[C@H](C)N(Cc1ccc(-c3ccccn3)cc1)C[C@H](C)[C@@H](OC)CN(C)C2=O,inactive: 1
8,O=C(CCCCCC(=O)Nc1ccccc1O)N/N=C/[C@H](O)[C@@H](O)[C@H](O)[C@H](O)CO[C@H]1O[C@H](CO)[C@H](O)[C@H](O)[C@H]1O,inactive: 1
9,CCS(=O)(=O)N1C[C@]2(CN(Cc3cc(ccc3F)F)[C@H](CO)c3c2c2ccc(cc2n3C)OC)C1,inactive: 1.04
10,COc1ccc(NC(=O)N(C)C[C@H]2OCCCC[C@@H](C)Oc3ccc(NS(=O)(=O)c4cccs4)cc3C(=O)N([C@@H](C)CO)C[C@@H]2C)cc1,inactive: 1
11,Cc1ccc(S(=O)(=O)Nc2ccc3c(c2)C(=O)N([C@@H](C)CO)C[C@@H](C)[C@H](CN(C)C(=O)Nc2c(C)noc2C)OCCCC[C@@H](C)O3)cc1,inactive: 0.99
12,COC(=O)c1cccnc1,inactive: 1
13,CNC(=O)C[C@@H]1CC[C@H]2[C@@H](COC[C@H](O)CN2C(=O)c2ccccn2)O1,inactive: 0.979
14,COCC(=O)N1CC[C@]2(CC1)CN(Cc1ccc3c(c1)OCO3)[C@@H](CO)c1c2c2ccc(cc2n1C)OC,inactive: 1.03
15,O=C(C1=C[C@@H](C2CC2)C[C@@H](OCc2ccc(CO)cc2)O1)N1CCN(Cc2ccc3c(c2)OCO3)CC1,inactive: 1
16,C[C@H](CO)N1C[C@H](C)[C@@H](CN(C)CC2CCOCC2)Oc2cc(C#Cc3ccccc3F)ccc2S1(=O)=O,inactive: 1.03
17,C[C@@H]1CN([C@@H](C)CO)C(=O)Cc2cc(N(C)C)ccc2O[C@@H]1CN(C)S(=O)(=O)c1ccc(Cl)cc1,inactive: 1
18,C[C@@H]1CN([C@H](C)CO)C(=O)Cc2cc(NC(=O)C3CC3)ccc2O[C@H]1CN(C)S(=O)(=O)c1ccc(Cl)cc1,inactive: 0.987
19,C[C@@H]1CN([C@@H](C)CO)C(=O)c2cccc(NS(C)(=O)=O)c2O[C@@H]1CN(C)Cc1ccc(C(=O)Nc2ccccc2N)cc1,inactive: 1.02
20,O=C(O)c1cc(N=Nc2ccc(S(=O)(=O)Nc3ccccn3)cc2)ccc1O,inactive: 1.11
21,C[C@H](CO)N1C[C@H](C)[C@H](CN(C)S(=O)(=O)c2ccc(F)cc2)OCCCC[C@H](C)Oc2ccc(NS(C)(=O)=O)cc2C1=O,inactive: 0.985

row,Compound,relative growth
1,CC1(C)C[C@H](c2nc(-c3ccccc3)cs2)CCS1,inactive: 1.05
2,COc1ccc(NC(=O)Nc2ccc3c(c2)C(=O)N([C@H](C)CO)C[C@H](C)[C@H](CN(C)Cc2ccc(C(=O)Nc4ccccc4N)cc2)O3)cc1,inactive: 0.962
3,C[C@@H]1CN([C@@H](C)CO)C(=O)c2cc(NC(=O)Nc3ccc(F)cc3)ccc2O[C@@H](C)CCCCO[C@@H]1CN(C)CC1CCCCC1,inactive: 0.968
4,C=CCOC(=O)[C@@H]1[C@H]2C(=O)O[C@H](c3ccccc3)[C@H](c3ccccc3)N2[C@H](c2ccc(OCCOC(=O)[C@@H]3C[C@@H]4C(=O)N[C@@H](CCCCN(C)C)C(=O)N4[C@@H]3c3ccc(O)cc3)cc2)[C@@]12C(=O)Nc1ccc(I)cc12,inactive: 1.04
5,CC(C)(C)[S@](=O)N1Cc2cc(C(=O)N3CCCCC3)nc(-c3cccc(-c4ccc(C#N)cc4)c3)c2[C@@H]1CCO,inactive: 1
6,C[C@H](CO)N1C[C@H](C)[C@@H](CN(C)Cc2ccc(-c3ccccc3)cc2)Oc2ccc(NS(=O)(=O)c3ccc(Cl)cc3)cc2CC1=O,inactive: 1.01
7,COc1ccc(S(=O)(=O)N(C)C[C@H]2OCCCC[C@H](C)Oc3ccc(NS(=O)(=O)c4cn(C)cn4)cc3C(=O)N([C@H](C)CO)C[C@H]2C)cc1,inactive: 0.985
8,C[C@@H]1CCCCO[C@H](CN(C)Cc2ccc3c(c2)OCO3)[C@@H](C)CN([C@H](C)CO)C(=O)c2cc(NC(=O)C3CCCCC3)ccc2O1,inactive: 1.02
9,C=CCN1C(=O)[C@]2(O[C@H](CCn3cc([C@H](O)c4ccccc4)nn3)[C@@H]([Si](C)(C)c3ccc(OC)cc3)[C@@H]2C)c2cc(N3CCOC3=O)ccc21,inactive: 0.912
10,COC1=CC(=O)C(O)=CC1=CC=Cc1ccccc1,inactive: 1.08
11,CO[C@H]1CN(C)C(=O)c2cc(NC(=O)c3ccccc3)ccc2OC[C@H](C)N(C(=O)CN(C)C)C[C@@H]1C,inactive: 0.938
12,COC(=O)[C@H]1CCC(=O)[C@H](C(=O)OC)C1,inactive: 0.993
13,COc1ccc(CN(C)C[C@@H]2Oc3ccc(NC(=O)Cn4cnnn4)cc3C(=O)N([C@@H](C)CO)C[C@H]2C)cc1,inactive: 0.973
14,C[C@@H]1CCCCO[C@H](CN(C)S(=O)(=O)c2cccs2)[C@H](C)CN([C@H](C)CO)C(=O)c2cc(NC(=O)Cc3ccccc3)ccc2O1,inactive: 1.03
15,COc1cc(OC)nc([C@@H](NC(=O)C2CCN(Cc3ccc(Oc4ccccc4)cc3)CC2)c2ccccc2C)n1,inactive: 1.02
16,C[C@@H]1CCCCO[C@@H](CN(C)S(=O)(=O)c2ccccc2)[C@H](C)CN([C@H](C)CO)C(=O)c2cc(NC(=O)CCC(F)(F)F)ccc2O1,inactive: 1
17,COc1ccccc1CNC(=O)C[C@H]1C[C@@H]2c3cc(NC(=O)Nc4ccc(C(F)(F)F)cc4)ccc3O[C@@H]2[C@@H](CO)O1,inactive: 0.968
18,O=C(N[C@H]1C=C[C@H](CC(=O)N2CCOCC2)O[C@@H]1CO)c1ccc2c(c1)OCO2,inactive: 0.988
19,C[C@@H]1CN([C@@H](C)CO)C(=O)c2cc(NS(=O)(=O)c3cccs3)ccc2O[C@@H](C)CCCCO[C@@H]1CN(C)C(=O)Nc1ccccc1,inactive: 1.01
